Experimental data as given in the supplement of paper PMC12297408.
Where a name gives a salt, the structure may show the parent alone. Screen size: about 1,300 compounds; about 40 (3%) showed activity. This is one part of the list.

Test system: Plasmodium falciparum NF54/iGP1_RE9H ulg8 stage V gametocytes
Test: gametocyte viability (luciferase signal relative to DMSO control) (% of DMSO control); higher = less gametocytocidal activity, active = 50 or less
Settings: exposure time: 72 h
Procedure, shortened: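 In 96-well plates holding nanolitre spots of compound (10 mM DMSO stocks), NF54/iGP1_RE9Hulg8 stage V gametocytes from day 12 were added at ~2.5% gametocytemia and 3% hematocrit in medium with 0.5% Albumax II, giving single wells at 10 µM or 1 µM. Incubation lasted 72 h at 37 °C. Each 90 µl sample then received 10 µl D-luciferin (30 mg/ml) before luminescence reading on an IVIS Lumina II, and viability was normalized to the mean of DMSO vehicle wells on the same plate.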

Row | Structure (SMILES) | gametocyte viability (concentration: 1 µM) | gametocyte viability (concentration: 10 µM)
1 | CC(C)(C)NCC(O)c1cc(O)cc(O)c1 (stereo unspecified) [Terbutaline hemisulfate] | inactive: 92 | inactive: 85
2 | CCOc1ccc(NC(C)=O)cc1 [Phenacetin] | inactive: 85.3 | inactive: 87.3
3 | CN1CCC[C@@H]1CCO[C@](C)(c1ccccc1)c1ccc(Cl)cc1 [Clemastine fumarate] | inactive: 91.5 | inactive: 63
4 | COc1cc2ncnc(Nc3ccc(F)c(Cl)c3)c2cc1OCCCN1CCOCC1 [Gefitinib] | inactive: 95.8 | inactive: 85.9
5 | CC(C(=O)O)c1ccc(C(=O)c2cccs2)cc1 (stereo unspecified) [Suprofen] | inactive: 88.1 | inactive: 84.9
6 | CCCCC[C@H](O)/C=C/[C@H]1[C@H](O)CC(=O)[C@@H]1CCCCCCC(=O)O [Alprostadil] | inactive: 82.4 | inactive: 86.2
7 | CCN1CCC[C@H]1CNC(=O)c1c(O)c(Cl)cc(Cl)c1OC [Raclopride] | inactive: 89.4 | inactive: 89
8 | COC(=O)C1=C(C)NC(C)=C(C(=O)OCC(C)C)C1c1ccccc1[N+](=O)[O-] (stereo unspecified) [Nisoldipine] | inactive: 83.7 | inactive: 79.4
9 | COC(=O)C1=C(C)NC(C)=C(C(=O)OCCN(C)Cc2ccccc2)C1c1cccc([N+](=O)[O-])c1 (stereo unspecified) [Nicardipine hydrochloride] | inactive: 76 | inactive: 76.4
10 | CN1CCN(c2c(F)cc3c(=O)c(C(=O)O)cn4c3c2SCC4)CC1 [Rufloxacin] | inactive: 87.6 | inactive: 87.7
11 | Cc1ccccc1C(OCCN(C)C)c1ccccc1 (stereo unspecified) [Orphenadrine hydrochloride] | inactive: 84.4 | inactive: 87.5
12 | CC(C)NCC(O)c1ccc(O)c(O)c1 (single isomer, unassigned; (-)) [(-)-Isoproterenol hydrochloride] | inactive: 91.5 | inactive: 89.5
13 | NC(=O)NC1NC(=O)NC1=O (stereo unspecified) [Allantoin] | inactive: 86.6 | inactive: 84.4
14 | CN(C)CCOC(c1ccc(Cl)cc1)c1ccccn1 (stereo unspecified) [Carbinoxamine maleate salt] | inactive: 84.3 | inactive: 78.5
15 | O=C1CCc2ccc(OCCCCN3CCN(c4cccc(Cl)c4Cl)CC3)cc2N1 [Aripiprazole] | inactive: 96.9 | inactive: 91.5
16 | CCN(CC)CCOc1ccc(C(=C(Cl)c2ccccc2)c2ccccc2)cc1 [Clomiphene citrate (Z,E)] | inactive: 82.4 | inactive: 95.2
17 | CCCCNc1ccc(C(=O)OCCN(C)C)cc1 [Tetraca? hydrochloride] | inactive: 87 | inactive: 89
18 | CN1CCOC(c2ccccc2)c2ccccc2C1 (stereo unspecified) [Nefopam hydrochloride] | inactive: 89.7 | inactive: 87
19 | CN1CCC(=C2c3ccccc3CCc3sccc32)CC1 [Pizotifen malate] | inactive: 90 | inactive: 88.9

Row | Structure (SMILES) | gametocyte viability (concentration: 1 µM) | gametocyte viability (concentration: 10 µM)
20 | Cc1cnc(C(=O)NCCc2ccc(S(=O)(=O)NC(=O)NC3CCCCC3)cc2)cn1 [Glipizide] | inactive: 84.2 | inactive: 87.4
21 | O=C1[C@H](CC[C@H](O)c2ccc(F)cc2)[C@@H](c2ccc(O)cc2)N1c1ccc(F)cc1 [Ezetimibe] | inactive: 98.8 | inactive: 94.4
22 | COc1ccccc1N1CCN(CCCCNC(=O)c2ccc3ccccc3c2)CC1 | inactive: 82.8 | inactive: 73.7
23 | CCC1NC(=O)c2cc(S(N)(=O)=O)c(Cl)cc2N1 (stereo unspecified) [Quinethazone] | inactive: 87.2 | inactive: 84.7
24 | Cn1c(=O)c2c(ncn2CCO)n(C)c1=O [Etofylline] | inactive: 80.9 | inactive: 82.4
25 | CC(C)NCC(O)c1cc(O)cc(O)c1 (stereo unspecified) [Metaproterenol sulfate, orciprenaline sulfate] | inactive: 94.6 | inactive: 93.6
26 | O=C(O)CN(CCN(CC(=O)O)CC(=O)O)CCN(CC(=O)O)CC(=O)O [Pentetic acid] | inactive: 101 | inactive: 101
27 | C#CCN(C)CCCOc1ccc(Cl)cc1Cl [Clorgyline hydrochloride] | inactive: 83 | inactive: 80.5
28 | CCC(=O)OCC(=O)[C@@]1(OC(=O)CC)[C@@H](C)C[C@H]2[C@@H]3CCC4=CC(=O)C=C[C@]4(C)[C@@]3(Cl)[C@@H](O)C[C@@]21C [Beclomethasone dipropionate] | inactive: 85.8 | inactive: 80.6
29 | CCN(CC)Cc1cc(Nc2ccnc3cc(Cl)ccc23)ccc1O [Amodiaquin dihydrochloride dihydrate] | inactive: 76.8 | inactive: 62.6
30 | COc1ccccc1N1CCN(CCCNc2cc(=O)n(C)c(=O)n2C)CC1 [Urapidil hydrochloride] | inactive: 75.6 | active: 48.5
31 | COc1nc(N)nc2c1ncn2[C@@H]1O[C@H](CO)[C@@H](O)[C@@H]1O [Nelarabine] | inactive: 82 | inactive: 80.4
32 | O=C1NCCN1CCN1CCC(c2cn(-c3ccc(F)cc3)c3ccc(Cl)cc23)CC1 [Sertindole] | inactive: 97.7 | inactive: 82.3
33 | O=C1CCC(N2C(=O)c3ccccc3C2=O)C(=O)N1 (stereo unspecified) [Thalidomide] | inactive: 85.3 | inactive: 86.6
34 | Clc1ccc(C(Cn2ccnc2)OCc2csc3c(Cl)cccc23)c(Cl)c1 (stereo unspecified) [Sertaconazole nitrate] | inactive: 90.8 | inactive: 78.8
35 | CC(=O)OCC1=C(C(=O)O)N2C(=O)[C@@H](NC(=O)Cc3cccs3)[C@H]2SC1 [Cephalothin sodium salt] | inactive: 87 | inactive: 92.3
36 | CCN(CC)CCNC(=O)COc1ccc(OC)cc1 [Mefexamide hydrochloride] | inactive: 98.9 | inactive: 98.9
37 | CC1(C)S[C@@H]2[C@H](NC(=O)Cc3ccccc3)C(=O)N2[C@H]1C(=O)O [Benzylpenicillin sodium] | inactive: 81.6 | inactive: 84.5
38 | CCCCc1nc(Cl)c(CO)n1Cc1ccc(-c2ccccc2-c2nnn[nH]2)cc1 [Losartan] | inactive: 83.7 | inactive: 81.1
